About 220 (0.56%) of roughly 39,000 compounds showed activity. The list shows a part of the results.
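Further: static incubation at 37 °C against the wild-type strain, values averaged over two biological replicates.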

The test system of the experiment is Escherichia coli K-12 BW25113. Description: relative growth (OD600 normalised to plate interquartile mean) (fraction); higher = less growth inhibition, active = 0.2 or less. Particulars: 50 µM; LB; incubation time: overnight (16-24 h).
With `CN(C)C(=O)c1ccc(-c2cccc(-c3nc(C(=O)NC4CCCC4)cc4c3[C@@H](CCO)N([S@](=O)C(C)(C)C)C4)c2)cc1`, the relative growth is inactive: 0.996.
With `C[C@@H]1CN([C@H](C)CO)C(=O)c2cccc(NC(=O)c3ccc(-c4nccs4)cc3)c2O[C@@H]1CN(C)Cc1ccc(C(=O)Nc2ccccc2N)cc1`, the relative growth was inactive: 1.02.
Under `C=CC(C1=CC(=O)C(OC)=CC1=O)c1ccc(O)cc1` (stereo not given) stands inactive: 1.06.
The same measure for `Cn1c(=O)c2[nH]c(-[n+]3ccc(C(=O)O)cc3)nc2n(C)c1=O`: inactive: 1.03.
The same measure for `O[C@@H]1N[C@H](O)c2ccccc21`: inactive: 1.02.
With `C[C@@H]1CN([C@H](C)CO)C(=O)Cc2cc(NC(=O)CCN3CCOCC3)ccc2O[C@@H]1CN(C)Cc1ccc(C(=O)O)cc1`, the relative growth is inactive: 0.979.
Under `C/C=C/c1cnc2c(c1)C(=O)N([C@H](C)CO)C[C@H](C)[C@@H](CN(C)S(=O)(=O)c1ccc(OC)cc1)O2` stands inactive: 1.02; under `Cc1noc(C)c1NC(=O)Nc1ccc2c(c1)CC(=O)N([C@H](C)CO)C[C@@H](C)[C@H](CN(C)C(=O)Nc1ccc(C(F)(F)F)cc1)O2`, inactive: 1.01.
Under `C[C@H]1CN([C@@H](C)CO)C(=O)Cc2cc(NC(=O)Cc3ccccc3)ccc2O[C@H]1CN(C)S(=O)(=O)c1cn(C)cn1` stands inactive: 0.967; under `C[C@H](NC(=O)N(C)C[C@@H]1OCc2ccccc2-c2c(n(C)c3ccccc23)C(=O)N([C@@H](C)CO)C[C@@H]1C)c1ccccc1`, inactive: 1.02; under `COCC#Cc1ccc([C@@H]2[C@@H](CO)N3C(=O)CN(C(=O)C4CCOCC4)C[C@@H]23)cc1`, inactive: 1.
With `CCOC(=O)Cc1nnc(CC(=O)OCC)[nH]1`, the relative growth was inactive: 0.988.
The same measure for `C[C@@H]1CN([C@@H](C)CO)C(=O)c2c(c3ccccc3n2C)-c2ccccc2CO[C@H]1CN(C)Cc1ccc(C(F)(F)F)cc1`: inactive: 1.04; for `CO/N=C(\C(=O)N[C@@H]1C(=O)N2C(C(=O)O)=C(C[n+]3ccn4ncccc43)CS[C@H]12)c1nsc(N)n1`: active: 0.0425.
The same measure for `C=CCC[C@@H](Cc1ccc(F)cc1)C(=O)O[C@@H](CNC(=O)[C@@H](CC=C)CC(=O)N[C@H](CO)Cc1ccccc1)c1ccccc1`: inactive: 1.06.
The same measure for `C[C@@H]1CN([C@H](C)CO)C(=O)Cc2cc(NC(=O)Nc3ccc4c(c3)OCO4)ccc2O[C@@H]1CN(C)S(=O)(=O)c1cn(C)cn1`: inactive: 0.986.
On to `Cc1noc(C)c1NC(=O)N(C)C[C@H]1Oc2ccc(NC(=O)Nc3cccc4ccccc34)cc2CC(=O)N([C@H](C)CO)C[C@H]1C`, for which the relative growth was inactive: 1.
Turning to `COCCN1C(=O)CO[C@H]2CN(S(=O)(=O)c3ccccc3)C[C@@H]21`, the relative growth is inactive: 1.01.
The same measure for `Nc1cccn2ncnc12`: inactive: 1.01; for `Cc1ccc(S[C@]2(C(=O)NCC(F)(F)F)CC(=O)N(Cc3ccccc3C(F)(F)F)[C@@H]2c2ccc(CO)cc2I)cc1`: inactive: 0.978; for `CNC[C@H]1OCCCC[C@H](C)Oc2ccc(NS(=O)(=O)c3c(C)noc3C)cc2C(=O)N([C@@H](C)CO)C[C@H]1C`: inactive: 0.973.
The same measure for `CN(C)CCNC(=O)[C@H]1CN(Cc2cnn(C)c2)Cc2ccnn2C1`: inactive: 1.
As to `O=C1CN(c2ccccc2)C=NN1`, the relative growth was inactive: 0.987.
Under `O=C(C[C@@H]1C[C@H]2c3cc(NS(=O)(=O)c4ccc(F)cc4)ccc3O[C@H]2[C@@H](CO)O1)NC1CCCC1` stands inactive: 0.977; under `O=C(C[C@H]1CC[C@H]2[C@@H](COC[C@@H](O)CN2C(=O)Nc2ccc(Cl)cc2)O1)NCCc1ccncc1`, inactive: 0.993; under `C[C@@H]1CN([C@@H](C)CO)C(=O)c2cccc(NC(=O)Nc3ccc4c(c3)OCO4)c2O[C@H]1CN(C)S(=O)(=O)c1cn(C)cn1`, inactive: 1.01.
`C[C@H](CO)N1C[C@H](C)[C@H](CN(C)C(=O)c2ccccc2)OCCCC[C@H](C)Oc2ccc(NS(=O)(=O)c3cccs3)cc2C1=O`: the relative growth was inactive: 1.01.
The same measure for `C[C@H](CO)N1C[C@H](C)[C@@H](CN(C)S(=O)(=O)c2ccccc2F)Oc2ncc(C#Cc3cccnc3)cc2C1=O`: inactive: 0.982.
Take `C[C@H](CO)N1C[C@H](C)[C@@H](CN(C)S(=O)(=O)c2ccccc2)Oc2ncc(C#Cc3ccccc3F)cc2C1=O`: the relative growth was inactive: 1.02.
`CN(C)CC(=O)N[C@H]1CC[C@@H](CCNC(=O)C2CCC2)O[C@H]1CO`: the relative growth was inactive: 0.994.
The same measure for `C[C@H](CO)N1C[C@H](C)[C@@H](CN(C)S(=O)(=O)c2ccc(F)cc2)Oc2ccc(NS(=O)(=O)c3cn(C)cn3)cc2CC1=O`: inactive: 1.
As for `C=CCC[C@H](Cc1ccc(F)cc1)C(=O)OC[C@@H](NC(=O)[C@H](CC=C)CC(=O)N(CCO)Cc1ccccc1)c1ccccc1`, the relative growth is inactive: 1.06.
The same measure for `COc1ccc(S(=O)(=O)Nc2ccc3c(c2)CC(=O)N([C@@H](C)CO)C[C@H](C)[C@@H](CN(C)Cc2ccc(Cl)c(Cl)c2)O3)cc1`: inactive: 1.01; for `C[C@@H]1CCCCO[C@@H](CN(C)C(=O)Nc2cccc3ccccc23)[C@H](C)CN([C@H](C)CO)C(=O)c2cc(NC(=O)c3ccncc3)ccc2O1`: inactive: 0.993.
The same measure for `C[C@H](CO)N1C[C@H](C)[C@@H](CN(C)Cc2ccc(-c3ccccc3)cc2)Oc2ccc(NC(=O)Cn3cnnn3)cc2CC1=O`: inactive: 0.988; for `C[C@@H]1CN([C@@H](C)CO)C(=O)c2cc(NS(=O)(=O)c3cn(C)cn3)ccc2O[C@@H](C)CCCCO[C@@H]1CN(C)C(=O)Nc1cccc2ccccc12`: inactive: 0.963; for `Cc1noc(C)c1NC(=O)N(C)C[C@@H]1Oc2c(NC(=O)C3CCOCC3)cccc2C(=O)N([C@@H](C)CO)C[C@H]1C`: inactive: 0.98.
Under `C[C@@H]1CN([C@@H](C)CO)C(=O)c2cc(NC(=O)Nc3cccc4ccccc34)ccc2O[C@H]1CN(C)C(=O)Nc1ccc2c(c1)OCO2` stands inactive: 0.994; under `C[C@@H]1CN([C@@H](C)CO)C(=O)Cc2cc(NC(=O)Cc3ccccc3)ccc2O[C@H]1CN(C)S(=O)(=O)c1cn(C)cn1`, inactive: 0.945.
For `Cc1cc(C(=O)Nc2cccc3c2O[C@@H](CN(C)Cc2ccncc2)[C@H](C)CN([C@H](C)CO)C3=O)n(C)n1`, the relative growth was inactive: 0.995.

Values taken from the supplement of paper PMC9446081.
